Data: PubChem BioAssay AID1461 (National Center for Advancing Translational Sciences (NCATS), 2008)
The whole screen tested about 220,000 compounds, of which about 2,300 (1%) were called active. The inconclusive results got no clear call from the source; some entries with a clear call stand among them for comparison. Calls follow the shape of the dose curve; as a rule, active = well fitted inhibition curve with a large enough effect; inconclusive = small, poorly fitted or top-dose-only effect, or effect the other way; inactive = no such curve, though single readings can be large or run the other way. Potencies of inconclusive entries are left out as doubtful fits.
Also: nearly all actives have a fitted effect of over 50% in size.
Potency is read from the fitted curve at half-maximal effect; tags tell the direction and shape of the fitted curve.

Each compound was assayed against Neuropeptide S receptor (Homo sapiens) (UniProt Q6W5P4) (assay: qHTS Assay for Antagonists of the Neuropeptide S Receptor: cAMP Signal Transduction). Conditions: CHO-NPSR cells, cAMP TR-FRET, antagonist mode; series mostly up to 38.3 µM.
UniProt Q6W5P4, sequence (Q6W5P4 whole entry, looked up): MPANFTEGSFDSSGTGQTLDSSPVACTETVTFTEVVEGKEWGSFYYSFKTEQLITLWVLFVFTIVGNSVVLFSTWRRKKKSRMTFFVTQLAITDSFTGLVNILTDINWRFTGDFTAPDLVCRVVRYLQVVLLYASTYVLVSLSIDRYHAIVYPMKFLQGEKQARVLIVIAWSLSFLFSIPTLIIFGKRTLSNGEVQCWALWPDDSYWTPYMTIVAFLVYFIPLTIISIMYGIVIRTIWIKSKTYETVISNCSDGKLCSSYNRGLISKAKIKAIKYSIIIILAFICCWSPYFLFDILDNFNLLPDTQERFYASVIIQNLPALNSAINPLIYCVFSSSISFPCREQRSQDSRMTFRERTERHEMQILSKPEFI
In the case of `CC1(C)Cc2c(C#N)c(NCCc3ccccc3)nc(-c3ccco3)c2CO1`, the Potency is reported as inconclusive [inhibitor, single point].
With `Cc1cccc(N2CCN(C(=O)c3cc4c(=O)n(C)c5ccccc5c4n3C)CC2C)c1` (centres undefined) the Potency was inconclusive [inhibitor, single point].
With `O=C(CN1CCN(Cc2ccccc2)C1=O)NCc1ccc(Cl)cc1` the Potency was “inactive”.
For `CCOC(=O)c1cc(C(O)(C(F)(F)F)C(F)(F)F)c(/N=C/N(C)C)o1`, the Potency was inconclusive [inhibitor, partial curve].
With `CCCCn1ccnc1C(=O)c1cccc(S(=O)(=O)N2CC(C)CC(C)C2)c1` (centres undefined) the Potency was inconclusive [inhibitor, single point].
With `O=C(Cc1ccc(Cl)cc1)Nc1ccccc1Sc1ccccc1` the Potency was “inactive”.
For `COc1ccc(-n2c(-c3cccc(C)c3[N+](=O)[O-])n[nH]c2=S)cc1`, the Potency was “inactive”.
`CCOc1ccccc1C(=O)N1CCN(c2cccc(Cl)c2)CC1` was tested, and the Potency was inconclusive [activator, full curve].
For `CC(C#N)On1c(SC(C)C#N)nc2ccccc2c1=O` (centres undefined), the Potency was “inactive”.
With `CCN(CC)S(=O)(=O)c1ccc(N2CCOCC2)c(NC(=O)c2c3c(nc4ccccc24)CCC3)c1` the Potency was “inactive”.
`COc1cccc(-c2nn3c(-c4ccccn4)nnc3s2)c1` was tested, and the Potency was “inactive”.
In the case of `O=C(Nc1nc(-c2nc3ccccc3s2)cs1)c1ccc(S(=O)(=O)N2CCOCC2)cc1`, the Potency is reported as inconclusive [inhibitor, single point].
With `CCNc1nc(Cl)nc(-c2cn(-c3ccccc3)c3ccccc23)n1` the Potency was inconclusive [activator, partial curve].
With `CC(C)(Oc1ccc(Cl)cc1)C(=O)N/N=C/c1cn[nH]c1-c1ccccc1` the Potency was inconclusive [inhibitor, partial curve].
In the case of `CC(C)(C)n1nnnc1C(c1ccncc1)N(Cc1ccccc1)Cc1ccco1` (centres undefined), the Potency is reported as inconclusive [inhibitor, partial curve].
In the case of `Clc1cccc2c1Sc1ccccc1CC2N1CCNCC1` (centres undefined), the Potency is reported as inconclusive [inhibitor, single point].
With `C=CCC1(O)C(=O)N2C(=C1C(=O)OCC)c1ccc3ccccc3c1CC2(C)C` (centres undefined) the Potency was inconclusive [inhibitor, partial curve].
With `C/C(=N\Nc1cccc([N+](=O)[O-])c1)c1cc(F)ccc1O` the Potency was inconclusive [inhibitor, single point].
`C=CCn1c(NC(C)c2cc(Cl)ccc2O)nc2ccccc21` (centres undefined) was tested, and the Potency was inconclusive [inhibitor, single point].
With `CCc1ccccc1NC(=O)COc1ccc2oc(-c3ccc(OC)cc3)cc(=O)c2c1` the Potency was inconclusive [activator, partial curve].
`C=CCc1cccc(Cl)c1OCCON1C(=O)CCC1=O` was tested, and the Potency was “inactive”.
In the case of `O=C(NC(=S)Nc1cccc(NC(=S)NC(=O)c2ccco2)n1)c1ccco1`, the Potency is reported as “inactive”.
`CC1(C)CC(=O)C(C(c2ccco2)C2C(=O)CC(C)(C)CC2=O)C(=O)C1` was tested, and the Potency was “inactive”.
For `CC1CN(S(=O)(=O)c2cccc(C(=O)OCC(=O)c3cccs3)c2)CC(C)O1` (centres undefined), the Potency was “inactive”.
In the case of `Cc1cc(C)n(-c2ccc(C(=O)NCc3ccc(F)cc3)cc2)n1`, the Potency is reported as “inactive”.
`Cc1ccccc1CSCC(=O)NC(=O)NCc1ccco1` was tested, and the Potency was “inactive”.
For `O=C(c1cc2sccc2n1Cc1ccccc1)N1CCc2ccccc21`, the Potency was active: 10 µM.
For `CCOc1ccc(Nc2oc(-c3cccs3)nc2C#N)cc1`, the Potency was inconclusive [inhibitor, single point].
In the case of `N=C1C(c2ccccc2)=C(O)C2CCc3ccccc3N12` (centres undefined), the Potency is reported as inconclusive [inhibitor, partial curve].
In the case of `CC(C)(C)c1cc(-c2csc(Nc3ccccc3)[n+]2Cc2ccc(C(=O)O)cc2)cc(C(C)(C)C)c1O`, the Potency is reported as active: 12.6 µM.
With `CN(Cc1nc(-c2ccncc2)no1)S(=O)(=O)c1ccccc1` the Potency was “inactive”.
For `COc1ccccc1-c1cc(C(=O)Nc2sc3c(c2C#N)CCC(C)C3)c2ccccc2n1` (centres undefined), the Potency was inconclusive [inhibitor, single point].
With `COc1cc(-c2nc3oc4ccccc4c(=O)c3c(=O)n2Cc2ccco2)cc(OC)c1OC` the Potency was inconclusive [inhibitor, single point].
With `O=C(CCc1ccccc1)NC(=S)Nc1cc(C(F)(F)F)ccc1N1CCOCC1` the Potency was inconclusive [inhibitor, single point].
For `CCOC(=O)c1sc2ncnc(N3CCN(c4ccc(OC)cc4)CC3)c2c1C`, the Potency was inconclusive [inhibitor, partial curve].
With `COc1cc2c(cc1OC)CN(C(=O)C1(c3ccccc3)CC1)CC2` the Potency was inconclusive [inhibitor, full curve, poor fit].
For `O=C(NCc1ccco1)c1nn2c(C(F)(F)F)cc(-c3cccs3)nc2c1Br`, the Potency was inconclusive [inhibitor, single point].
For `Cc1ccc(-n2nc(C)c3c(C)c(CCC(=O)Nc4ccc(CN5CCCC5)cc4)c(C)nc32)cc1`, the Potency was inconclusive [inhibitor, single point].
With `O=C(NCc1cccs1)C1CCN(c2ccc(S(=O)(=O)N3CCOCC3)cc2Cl)CC1` the Potency was inconclusive [activator, single point].
In the case of `O=C(O)c1ccc(-c2ccc(/C=C3\NC(=O)N(Cc4ccc(Cl)cc4)C3=O)o2)cc1`, the Potency is reported as inconclusive [activator, partial curve].
For `COc1cccc(-c2cc(-c3cccnc3)nc(N)c2C#N)c1`, the Potency was inconclusive [inhibitor, single point].
`O=C(NCc1ccccc1)C1=C[C@@H](c2ccc(Br)cc2)C[C@@H](OCc2ccc(CO)cc2)O1` was tested, and the Potency was inconclusive [activator, partial curve].
For `FC(F)(F)c1nc2ccccc2nc1N/N=C\c1ccccc1`, the Potency was inconclusive [inhibitor, single point].
In the case of `C=CCNC(=O)CSc1nc2cc(C(=O)OCC)ccc2n1CC`, the Potency is reported as “inactive”.
